Measurements from US20220049016A1 (ZYMEDI, published 2022).

Molecular target: T1, KRS epitope peptide F4
T1 peptide: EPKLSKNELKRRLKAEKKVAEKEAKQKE
Experiment: SPR, Biacore T200, antibody on the chip, peptide F4 as analyte
Protocol: The SPR experiment was performed using a Biacore T200 (GE Healthcare) equipped with a Series S sensor chip CM5 (GE Healthcare) at 25° C. After the antibody was immobilized on the chip using an amine coupling kit (GE Healthcare), the antigen was diluted 4 times in PBS solution in the range of 4.8 nM-1250 nM and flowed for 60 seconds. Thereafter, PBS was flowed for 300 seconds. The obtained data was analyzed with Biacore T200 Evaluation software v2.0 (GE Healthcare).
After that, PBS was flowed for 2400 seconds. The obtained data was analyzed with Biacore T200 Evaluation software v2.0 (GE Healthcare).

B1: N3-8-1 antibody (IgG) (antibody)
heavy: EVQLLESGGGLVQPGGSLRLSCAASGFTFSSYDMSWVRQAPGKGLEWVSAISPYSGRIYYADSVKGRFTISRDNSKNTLYLQMNSLRAEDTAVYYCARMALDFDYWGQGTLVTVSS[letters of human IgG1 constant region omitted]
light: QSVLTQPPSASGTPGQRVTISCTGSSSNIGSNYVTWYQQLPGTAPKLLIYDNSNRPSGVPDRFSGSKSGTSASLAISGLQSEDEADYYCSSFSDELGAYVFGGGTKLTVLGQPKAAPSVTLFPPSSEELQANKATLVCLISDFYPGAVTVAWKADSSPVKAGVETTTPSKQSNNKYAASSYLSLTPEQWKSHRSYSCQVTHEGSTVEKTVAPTECS
notes: Whole IgG1, N3-8 derivative; also called N3-8-1 IgG
B1 showed a Kd of 802 pM, a koff of 0.000215 s⁻¹ and a kon of 268000 M⁻¹ s⁻¹.
